In this experiment the test system is 101 serotypes of HRVs. In words: Spectrum of activity in HRV cytopathic effect assay. As to conditions: Human rhinovirus sp., read-out: drug concentration range inhibiting replication of 93 of 101 HRVs. The protocol: To determine the spectrum of activity and potency of pleconaril against the 101 serotypes of HRVs, each virus was tested in a cell culture assay that measured the drug's efficacy against the cytopathic effects of the viruses, in an infected cell monolayer.
HRV stocks were grown in HeLa (WIS) cells in 150 cm^2 flasks, frozen/thawed 3 times, aliquoted and stored frozen at −80° C. The virus inoculum to be used in the assay for each virus was determined as follows. HeLa (WIS) cells were seeded on 96-well tissue culture plates (Costar, 3598) at a density of 2.8×10^4 cells/well in M199 medium (Sigma) supplemented with 5% heat-inactivated newborn bovine serum. Twenty-four hours later, serial 0.5 log10 dilutions of each virus stock were plated in octuplicate onto the cells in complete M199 medium (5% heat-inactivated fetal bovine serum (FBS), 0.15 mM MgCl2, and 7.5 μg/mL diethylamino-dextran (DEAE-dextran)). The plates were incubated for 3 days at 33° C. in a humidified, 2.5% CO2 atmosphere, then fixed with 5% glutaraldehyde and stained with 0.1% crystal violet. After rinsing and drying, the optical density of the wells was read at a wavelength of 570 nm (OD570) on a Bio-Tek model EL-310 plate reader. […] Drug sensitivity of HRVs was determined as previously described (Pevear et al., 1999, supra), except that incubation conditions were at 33° C. in complete M199 medium and 2.5% CO2. […]

As for `Cc1cc(CCCOc2c(C)cc(-c3noc(C(F)(F)F)n3)cc2C)on1` [pleconaril, 3-[3,5-dimethyl-4-[3-(3-methyl-5-isoxazolyl)propoxy]phenyl]-5-(trifluoromethyl)-1,2,4-oxadiazole], the IC50 was in the range of 0.01 to 6.8 µM.
